Laboratory results published in PubChem BioAssay AID1159614 (National Center for Advancing Translational Sciences (NCATS), 2016).
About 65 (0.1%) of roughly 45,000 compounds were called active. Calls come from the whole dose curve; as a rule, active = well fitted activation curve with a large enough effect; inconclusive = small, poorly fitted or top-dose-only effect; inactive = no such curve, though single readings can be large or run the other way. The list shows a part of the results.

Each compound was assayed against Galactocerebrosidase (Homo sapiens) (UniProt P54803) (assay: A Novel Cell-Based Assay to Identify Small Molecules for B -Galactocerebrosidase). Conditions: 145M-Twi-hGALC-G270D cells (Twitcher mouse brain line with human GALC G270D), HMU-beta-Gal fluorescence, 48 h; series mostly up to 57.5 µM; activation: at the top concentration.
UniProt P54803, sequence (P54803 whole entry, looked up): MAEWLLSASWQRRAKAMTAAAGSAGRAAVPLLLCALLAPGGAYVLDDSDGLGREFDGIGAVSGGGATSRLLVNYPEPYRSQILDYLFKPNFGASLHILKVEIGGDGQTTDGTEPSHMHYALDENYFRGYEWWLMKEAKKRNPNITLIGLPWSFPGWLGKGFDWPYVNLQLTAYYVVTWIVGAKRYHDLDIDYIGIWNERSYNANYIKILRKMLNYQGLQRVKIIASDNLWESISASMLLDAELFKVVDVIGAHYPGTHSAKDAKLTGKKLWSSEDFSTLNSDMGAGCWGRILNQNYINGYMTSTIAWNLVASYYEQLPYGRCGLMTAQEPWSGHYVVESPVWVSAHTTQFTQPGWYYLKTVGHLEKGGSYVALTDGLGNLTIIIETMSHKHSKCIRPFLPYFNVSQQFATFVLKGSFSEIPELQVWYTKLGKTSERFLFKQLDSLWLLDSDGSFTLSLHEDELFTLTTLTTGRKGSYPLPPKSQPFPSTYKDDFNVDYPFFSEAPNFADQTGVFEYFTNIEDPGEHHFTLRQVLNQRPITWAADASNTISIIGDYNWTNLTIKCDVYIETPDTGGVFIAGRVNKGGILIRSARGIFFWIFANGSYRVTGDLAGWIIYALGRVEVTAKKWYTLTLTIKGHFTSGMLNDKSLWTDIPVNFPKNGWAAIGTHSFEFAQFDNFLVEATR
Summary of the method: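 Live 145M-Twi cells (Twitcher mouse brain-derived, GALC-null) stably expressing human GALC-G270D, with a wild-type GALC line, were compound-treated. Residual GALC activity was then read as fluorescence from 0.1 mM final HMU-β-gal at pH 5.2; higher signal means activation.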
Note: 0% is about no effect; nearly all actives have a fitted effect of over 65% in size.

activation, inactive:
CCc1ccccc1NC(=O)c1sc(-n2nc(C)c(Cc3ccccc3)c2C)nc1C 0.922%
COCc1cc(C)nc2sc3c(=O)n(-c4ccccc4C(F)(F)F)nnc3c12 -11.3%
COCCCn1c(=O)c2sccc2n2c(CCCC(=O)NC3CCC(C)CC3)nnc12 (stereo not given) -0.652%
Cc1cccc(NC(=O)C2CCN(S(=O)(=O)c3ccc4c(c3)CCCN4C(=O)C3CCC3)CC2)c1 -7.97%
Cc1cccc(C)c1-n1ncc(C(=O)N2CCN(c3ncccn3)CC2)c1C1CCN(C(=O)OC(C)(C)C)CC1 9.04%
CCCn1cc(S(=O)(=O)c2cc(C)ccc2C)c(=O)c2cc(F)c(N3CCN(CC)CC3)cc21 -22.3%
CCN1CCN(Cc2c(O)ccc3c(=O)c(Oc4ccccc4C(C)C)c(C(F)(F)F)oc23)CC1 -5%
Cc1ccc(NC(=O)CSc2nc3ccc(NC(=O)CCc4ccccc4)cc3s2)cc1 -7.9%
CCCN1CCN(CCCNC(=O)Cn2nc(C)n3c(cc4c(OC)cccc43)c2=O)CC1 -16.7%
COc1cc(NC(=O)CSc2nc(-c3ccc(C(C)C)cc3)no2)cc(OC)c1 -10.4%
COc1ccc(C(=O)N(Cc2ccc(N(C)C)cc2)CC2CCCO2)cc1 (stereo not given) -5.46%
COc1ccc(NC(=O)CSc2cn(CCNC(=O)c3c(F)cccc3F)c3ccccc23)cc1 -20.3%
CCC(C)n1c(=N)c(C(=O)NC2CCCCC2)cc2c(=O)n3ccccc3nc21 (stereo not given) -13%
CC(=O)Nc1ccc2nc(NC(=O)CS(=O)(=O)c3ccc(C)cc3)sc2c1 -7.21%
Cc1ccc(C)c(N2CCN(S(=O)(=O)c3cn(C)c(C)n3)CC2)c1 -4.48%
COc1ccc(C2=Nc3ccc(OC(F)(F)F)cc3NC(c3cccnc3)=N2)cc1 -5.66%
Cc1ccc(CNC(=O)c2cc3ccc4cccnc4c3[nH]2)cc1 -17.3%
Cc1ccccc1CNC(=O)c1ccc2nc(C(C)C)oc2c1 -10.9%
COc1cc(Cl)c(C)cc1NC(c1ccccc1)c1nnc(-c2ccccc2Cl)o1 (stereo not given) -17.2%
COc1ccc(-c2noc(-c3ccc(NC4CCCC4)c([N+](=O)[O-])c3)n2)cc1OC -7.77%
Cc1ccc(NC(=O)Cn2cnc3c2c(=O)n(C)c(=O)n3C)cc1C -9.62%
CCN(C(=O)Cn1c(=O)n(Cc2ccccc2)c(=O)c2c1c1cc(OC)ccc1n2C)c1ccccc1 -1.67%
O=C(c1cccc(Cl)c1)N1c2ncnn2C2(CCCCC2)[C@@H]2CCCC[C@@H]21 -8.06%
Cc1ccc(Cl)cc1NC(=O)CCc1c(C)nc2c3cccnc3nn2c1C 4.79%
Cc1ccc2c(=O)cc(C(=O)Nc3sc4c(c3C(=O)NCC3CCCO3)CCCC4)oc2c1C (stereo not given) -2.59%
CC(C)(C)OC(=O)N1CCC(c2c(C(=O)NCCN3CCOCC3)cnn2-c2ccc(F)cc2)CC1 -8.29%
Cc1ccc2c(c1)N(C(=O)N1CCC(C(=O)NCCc3ccccc3)CC1)CC(C)O2 (stereo not given) -24.3%
COc1ccc(-c2ccc3c(N)c(C(=O)NCc4ccc(C)cc4)sc3n2)cc1 10.6%
COc1ccc(N2Cc3cccc(C(=O)Nc4ccc(Cl)cc4)c3C2=O)cc1 13.1%
COc1ccc(C)cc1NC(=O)C(Cc1ccccc1)NS(=O)(=O)c1ccc(Br)s1 (stereo not given) 2.38%
O=C(COc1ccc(F)cc1)Nc1nnc(SCc2cc(=O)n3ccccc3n2)s1 -24.3%
CCOc1ccc(-c2nonc2NC(=O)c2oc3cc(C)ccc3c2C)cc1OCC -20.3%
CCOC(=O)C1CCCN(C(=O)c2ccc3c(c2)sc2nc(-c4ccc(C)cc4C)cn23)C1 (stereo not given) -17.3%
Cc1ccc(CN(Cc2ccco2)C(=O)COc2cccc(C)c2C)o1 -6.54%
O=C(Nc1nc2n(n1)C(c1ccccc1)C=C(c1ccc(Cl)cc1)N2)c1ccco1 (stereo not given) -9.83%
COc1cccc(Cn2c(SCc3ccc(C(=O)N4CCCCC4)cc3)nc3ccncc32)c1 -2.81%
Cc1cc(Cl)ccc1NC(=O)CN1C(=O)COc2ccc(S(=O)(=O)Nc3ccccc3)cc21 -9.48%
CCOC(=O)c1cnc2c(ccc3ccccc32)c1Nc1cccc(Cl)c1 -20.3%
COc1ccc(CCNC(=O)c2cnc3sc(N4CCOCC4)nn3c2=O)cc1 -11.5%
CCOc1ccc(CNC(=O)C2CCN(c3nc4ccccc4nc3C(F)(F)F)CC2)cc1OC -12.9%
CCc1c(C)sc2c1CCN(Cc1ccccc1C#N)C2c1ccccc1 (stereo not given) -17.9%
CC1CCN(c2oc(-c3cccs3)nc2S(=O)(=O)c2ccccc2)CC1 -13.9%
COc1ccc(-n2cc(-c3ccc4c(c3)OCO4)n(CC(=O)Nc3cc(Cl)ccc3C)c2=O)cc1 -22.6%
COc1ccc(-n2nc3ccc(NC(=O)c4cccc(OCCC(C)C)c4)cc3n2)cc1 -19.4%
Cc1nn(C)c2c1c(-c1ccccc1)cc(=O)n2Cc1ccc(F)cc1 -14.2%
COc1ccc(-c2nc3sc(CCNC(=O)Cc4ccccc4)c(C)n3n2)cc1 -14.1%
COc1ccc(C2=NS(=O)(=O)N(C)C(C(=O)NC(C)c3ccccc3)=C2)cc1 (stereo not given) -9.44%
COc1ccc(C)cc1NC(=O)c1nnn(Cc2cccc(Br)c2)c1N -17.8%
COc1ccc(CNC(=O)c2cnc(N3CCCC3)nc2C)c(OC)c1 -16.5%
COc1ccccc1CNC(=O)C(NS(=O)(=O)c1ccc2c(c1)CCN2C(C)=O)C(C)C (stereo not given) -11.3%
Cc1ccc(NC(=O)CCC(=O)N2Cc3ccccc3Oc3ncccc32)cc1Cl -11.5%
CCOC(=O)c1cnc2ccc(OC)cc2c1Nc1ccc(OCc2ccccc2Cl)cc1 -21.9%
CCc1ccc(C(=O)c2cn(CC(=O)Nc3cc(OC)ccc3OC)c3ccc(Cl)cc3c2=O)cc1 -10.1%
CCCS(=O)(=O)N1CCC(n2c(C)nc3cccnc32)CC1 -17.7%
CCN(CC)S(=O)(=O)c1ccc2c(c1)N(CC(=O)NCCCN1CCN(c3ccc(OC)cc3)CC1)C(=O)CO2 -7.75%
Cc1ccc2oc(C(=O)Nc3ccc(S(=O)(=O)N4CCCCC4C)cc3)cc(=O)c2c1 (stereo not given) -10.5%
CCOC(=O)c1cc(-c2ccccc2)n(CCC(=O)NCCc2ccccc2)c1C -14.2%
CCN(C(=O)CSc1nc2ccccc2n1CC(=O)N(C)C1CCCCC1)c1ccccc1 -5.11%
CCC1CCCCN1C(=O)CSc1nnc(-c2ccc(OC)c(OC)c2)o1 (stereo not given) -12.3%
Cc1ccc2nc(-c3cccs3)c(Nc3ccc4c(c3)OCCO4)n2c1 -8.12%
O=C(Cn1cc(S(=O)(=O)N2CCCC2)c(S(=O)(=O)N2CCCC2)c1)Nc1ccc(F)cc1 -17.6%
Cc1cc(-c2ccccc2)nnc1NCCN1CCOCC1 -2.59%
CCOC(=O)c1ccc(NC(=O)N2CC3CCCN3c3ccccc32)cc1 (stereo not given) -13.3%
CCOC(=O)N1CCN(Cc2nc3cc(NC(=O)c4ccccc4Cl)ccc3n2C(C)C)CC1 19.4%
COc1ccccc1NC(=O)CSc1cn(CC(=O)N2CCCC2)c2ccccc12 -21.2%
CC(=O)c1cccc(NC(=O)CCc2c(C)nc3nc(CN)nn3c2C)c1 -12.3%
CC(=O)N1CCc2c(sc3c2c(=O)n(-c2ccccc2Cl)c(=O)n3Cc2cccc(C)c2)C1 -19.8%
CN(C)c1ncc(C(=O)NCc2ccc(Cl)cc2)cn1 -13.2%
COc1ccccc1NC(=O)C1=C(C)Nc2nc3ccccc3n2C1c1ccccc1Cl (stereo not given) -7.42%
O=C(Cn1cc(C(=O)c2ccco2)c2ccccc21)Nc1ccccc1 -19.5%
CCOc1ccc(N2CC(C)Cn3c2nc2c3c(=O)n(Cc3c(F)cccc3Cl)c(=O)n2C)cc1 (stereo not given) -9.15%
CCOc1ccc(NC(=O)c2ccc(F)c(S(=O)(=O)N(Cc3ccc(C(=O)OC)cc3)Cc3ccc(OC)c(OC)c3)c2)cc1 -9.3%
COc1ccc(Cl)cc1Nc1ccc2cc(S(=O)(=O)N3CCCCC3)ccc2n1 -15.2%
CCC(=O)N1CCc2cc(S(=O)(=O)NCc3ccc(C)cc3)ccc21 -28.7%
Cc1cc2n(n1)CCCN2C(=O)Nc1ccc(F)c(Cl)c1 -4.21%
CCOCCc1nnc(NC(=O)C(=O)c2cc(C)n(-c3ccc(Cl)cc3)c2C)s1 -12%
Cc1cc(OCC(=O)N2CCC(c3nc4ccccc4s3)CC2)ccc1Cl -16.1%
O=C(CSc1ncc(-c2ccccc2)[nH]1)Nc1cccc(Br)c1 -8.98%
NC(N)=Nc1nc(CSCC/C(N)=N/S(N)(=O)=O)cs1 -16%
COc1cc2nc(NC(=O)c3ccc(S(=O)(=O)N4CCc5ccccc54)cc3)sc2cc1OC -27.6%
COc1cccc(-n2c(C)nc3cc(C(=O)O)ccc32)c1 -20.1%
CC1CCCCN1C(=O)c1ccc2c(c1)N(Cc1ccc(F)cc1)C(=O)c1ccccc1S2(=O)=O (stereo not given) -1.94%
CCN(CCCNC(=O)c1cc2c(=O)n(CC)c3ccccc3c2s1)Cc1ccccc1 -3.84%
COc1cccc(-c2nc3c(C#N)c[nH]n3c2NC2CCCC2)c1OC -12.3%
Cc1ccc(S(=O)(=O)c2cnc(SCC(=O)Nc3ccc4c(c3)OCCO4)[nH]c2=O)cc1C -11.5%
COC(=O)CN1C(C(=O)c2ccccc2)=C(OC(=O)c2ccc(F)cc2)c2ccccc2S1(=O)=O -3.45%
CCN(C(=O)CSc1nnc(-c2cc3occc3n2C)n1-c1ccccc1C)c1cccc(C)c1 -2.38%
CCCS(=O)c1ccc2nc(NC(=O)OC)[nH]c2c1 (stereo not given) 9.54%
COc1ccc(-c2cn3c(n2)sc2cc(C(=O)NCCCN4CCCCC4)ccc23)cc1 -1.19%
CCOc1ccccc1NC(=O)Cn1c(=O)n(-c2ccccc2)c(=O)c2c1c1cc(C)ccc1n2C 5.29%
COc1ccc(NC(=O)CN2C(=O)CCc3cc(S(=O)(=O)N4CCOCC4)ccc32)c(OC)c1 -5.15%
Cc1nn(CCCC(=O)Nc2cc(C(F)(F)F)ccc2Cl)c(=O)c2c1sc1ccccc12 -4.26%
CCc1nn(CC(=O)N(CC)Cc2ccccc2)c(=O)c2cc3occc3n12 -19.2%
CCN(CC)C(=O)c1cnn(-c2ccc(F)cc2)c1-n1cccc1 -22%
COc1ccc(N2CCN(C(=O)c3ccc4c(=O)n(CCc5ccc(OC)c(OC)c5)c(=O)[nH]c4c3)CC2)cc1 -9.76%
